# The list shows a part of the results.
# Key:
# Assay in all cases: glycan array binding signal (z-score within array); higher = stronger binding
# Conditions in all cases: glycan notation: IUPAC condensed, linker removed
# [1] = molecular target: Neu5Ac(a2-3)Gal(b1-3)[Fuc(a1-4)]GlcNAc(b1-3)Gal(b1-3)[Fuc(a1-4)]GlcNAc
# In short: (§1)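 From the Consortium for Functional Glycomics database, 3228 arrays were curated, keeping only those whose protein sequence was available. Binding is given as a within-array Z-score averaged across arrays sharing a protein sequence and across linkers. Negative Z-scores can be read as non-binding.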
# [2] = molecular target: Neu5Ac(a2-3)Gal(b1-3)[Fuc(a1-4)]GlcNAc(b1-3)Gal(b1-4)[Fuc(a1-3)]GlcNAc
# In short: as §1
# [3] = molecular target: Neu5Ac(a2-3)Gal(b1-3)[Neu5Ac(a2-3)Gal(b1-4)]GlcNAc
# In short: as §1
# [4] = molecular target: Neu5Ac(a2-3)Gal(b1-3)[Neu5Ac(a2-6)]GalNAc
# In short: as §1
# [5] = molecular target: Neu5Ac(a2-3)Gal(b1-3)[Neu5Ac(a2-6)]GlcNAc(b1-3)[Fuc(a1-3)[Gal(b1-4)]GlcNAc(b1-6)]Gal(b1-4)Glc
# In short: as §1
# Neu5Ac(a2-3)Gal(b1-4)Glc = molecular target: Neu5Ac(a2-3)Gal(b1-4)Glc
# In short: as §1
# [6] = molecular target: Neu5Ac(a2-3)Gal(b1-4)GlcNAc
# In short: as §1
# [7] = molecular target: Neu5Ac(a2-3)Gal(b1-4)GlcNAc(b1-2)Man
# In short: as §1
# [8] = molecular target: Neu5Ac(a2-3)Gal(b1-4)GlcNAc(b1-2)Man(a1-3)[GlcNAc(b1-2)Man(b1-4)GlcNAc(b1-2)Man(a1-6)]Man(b1-4)GlcNAc(b1-4)GlcNAc
# In short: as §1
# [9] = molecular target: Neu5Ac(a2-3)Gal(b1-4)GlcNAc(b1-2)Man(a1-3)[Neu5Ac(a2-3)Gal(b1-4)GlcNAc(b1-2)Man(a1-6)]Man(b1-4)GlcNAc(b1-4)[Fuc(a1-6)]GlcNAc
# In short: as §1
# [10] = molecular target: Neu5Ac(a2-3)Gal(b1-4)GlcNAc(b1-2)Man(a1-3)[Neu5Ac(a2-6)Gal(b1-4)GlcNAc(b1-2)Man(a1-6)]Man(b1-4)GlcNAc(b1-4)GlcNAc
# In short: as §1
# [11] = molecular target: Neu5Ac(a2-3)Gal(b1-4)GlcNAc(b1-2)[Neu5Ac(a2-3)Gal(b1-4)GlcNAc(b1-6)]Man(a1-6)[Neu5Ac(a2-3)Gal(b1-4)GlcNAc(b1-2)Man(a1-3)]Man(b1-4)GlcNAc(b1-4)GlcNAc
# In short: as §1
# [12] = molecular target: Neu5Ac(a2-3)Gal(b1-4)GlcNAc(b1-3)Gal
# In short: as §1
# [13] = molecular target: Neu5Ac(a2-3)Gal(b1-4)GlcNAc(b1-3)Gal(b1-3)GlcNAc
# In short: as §1
# [14] = molecular target: Neu5Ac(a2-3)Gal(b1-4)GlcNAc(b1-3)Gal(b1-4)GlcNAc
# In short: as §1
# [15] = molecular target: Neu5Ac(a2-3)Gal(b1-4)GlcNAc(b1-3)Gal(b1-4)GlcNAc(b1-3)Gal(b1-4)GlcNAc
# In short: as §1
# [16] = molecular target: Neu5Ac(a2-3)Gal(b1-4)GlcNAc(b1-3)Gal(b1-4)[Fuc(a1-3)]GlcNAc
# In short: as §1
# [17] = molecular target: Neu5Ac(a2-3)Gal(b1-4)GlcNAc(b1-3)GalNAc
# In short: as §1
# [18] = molecular target: Neu5Ac(a2-3)Gal(b1-4)GlcNAc(b1-3)[Neu5Ac(a2-3)Gal(b1-4)GlcNAc(b1-6)]GalNAc
# In short: as §1
# [19] = molecular target: Neu5Ac(a2-3)Gal(b1-4)GlcNAc(b1-6)GalNAc
# In short: as §1
# [20] = molecular target: Neu5Ac(a2-3)Gal(b1-4)GlcNAc(b1-6)[Gal(b1-3)]GalNAc
# In short: as §1
# [21] = molecular target: Neu5Ac(a2-3)Gal(b1-4)GlcNAc(b1-6)[Neu5Ac(a2-3)Gal(b1-3)]GalNAc
# In short: as §1
# [22] = molecular target: Neu5Ac(a2-3)Gal(b1-4)GlcNAc6S
# In short: as §1
# [23] = molecular target: Neu5Ac(a2-3)Gal(b1-4)[Fuc(a1-3)]GlcNAc
# In short: as §1
# [24] = molecular target: Neu5Ac(a2-3)Gal(b1-4)[Fuc(a1-3)]GlcNAc(b1-3)Gal
# In short: as §1
# [25] = molecular target: Neu5Ac(a2-3)Gal(b1-4)[Fuc(a1-3)]GlcNAc(b1-3)Gal(b1-4)GlcNAc
# In short: as §1
# [26] = molecular target: Neu5Ac(a2-3)Gal(b1-4)[Fuc(a1-3)]GlcNAc(b1-3)Gal(b1-4)[Fuc(a1-3)]GlcNAc(b1-3)Gal(b1-4)[Fuc(a1-3)]GlcNAc
# In short: as §1
# [27] = molecular target: Neu5Ac(a2-3)Gal(b1-4)[Fuc(a1-3)]GlcNAc(b1-3)GalNAc
# In short: as §1
# [28] = molecular target: Neu5Ac(a2-3)Gal(b1-4)[Fuc(a1-3)]GlcNAc(b1-6)[Gal(b1-3)]GalNAc
# In short: as §1
# [29] = molecular target: Neu5Ac(a2-3)Gal(b1-4)[Fuc(a1-3)]GlcNAc6S
# In short: as §1
# [30] = molecular target: Neu5Ac(a2-3)Gal6S(b1-4)GlcNAc
# In short: as §1
# [31] = molecular target: Neu5Ac(a2-3)Gal6S(b1-4)[Fuc(a1-3)]GlcNAc
# In short: as §1
# Neu5Ac(a2-3)GalNAc = molecular target: Neu5Ac(a2-3)GalNAc
# In short: as §1
# [32] = molecular target: Neu5Ac(a2-3)GalNAc(b1-4)GlcNAc
# In short: as §1
# [33] = molecular target: Neu5Ac(a2-3)[GalNAc(b1-4)]Gal(b1-4)Glc
# In short: as §1
# [34] = molecular target: Neu5Ac(a2-3)[GalNAc(b1-4)]Gal(b1-4)GlcNAc
# In short: as §1
# [35] = molecular target: Neu5Ac(a2-3)[GalNAc(b1-4)]Gal(b1-4)GlcNAc(b1-3)GalNAc
# In short: as §1
# [36] = molecular target: Neu5Ac(a2-3)[Neu5Ac(a2-6)]GalNAc
# In short: as §1
# Neu5Ac(a2-6)Gal = molecular target: Neu5Ac(a2-6)Gal
# In short: as §1
# [37] = molecular target: Neu5Ac(a2-6)Gal(b1-3)GlcNAc(b1-3)[Gal(b1-4)GlcNAc(b1-6)]Gal(b1-4)Glc
# In short: as §1
# Neu5Ac(a2-6)Gal(b1-4)Glc = molecular target: Neu5Ac(a2-6)Gal(b1-4)Glc
# In short: as §1
# [38] = molecular target: Neu5Ac(a2-6)Gal(b1-4)GlcNAc
# In short: as §1
# [39] = molecular target: Neu5Ac(a2-6)Gal(b1-4)GlcNAc(b1-2)Man(a1-3)Man(b1-4)GlcNAc(b1-4)GlcNAc
# In short: as §1
# [40] = molecular target: Neu5Ac(a2-6)Gal(b1-4)GlcNAc(b1-2)Man(a1-3)[Gal(b1-4)GlcNAc(b1-2)Man(a1-6)]Man(b1-4)GlcNAc(b1-4)GlcNAc
# In short: as §1
binder,measurement,setting,value
"Gal 8 (Homo sapiens), O00214_1 (protein) MMLSLNNLQNIIYNPVIPFVGTIPDQLDPGTLIVIRGHVPSDADRFQVDLQNGSSMKPRADVAFHFNPRFKRAGCIVCNTLINEKWGREEITYDTPFKREKSFEIVIMVLKDKFQVAVNGKHTLLYGHRIGPEKIDTLGIYGKVNIHSIGFSFSSDLQSTQASSLELTEISRENVPKSGTPQLRLPFAARLNTPMGPGRTVVVKGEVNANAKSFNVDLLAGKSKDIALHLNPRLNIKAFVRNSFLQESWGEEERNITSFPFSPGMYFEMIIYCDVREFKVAVNGVHSLEYKHRFKELSSIDTLEINGDIHLLEVRSW",glycan array binding signal (z-score),[1],-0.255
same,glycan array binding signal (z-score),[2],-0.246
same,glycan array binding signal (z-score),[3],-0.192
same,glycan array binding signal (z-score),[4],-0.163
same,glycan array binding signal (z-score),[5],-0.082
same,glycan array binding signal (z-score),Neu5Ac(a2-3)Gal(b1-4)Glc,0.487
same,glycan array binding signal (z-score),[6],-0.207
same,glycan array binding signal (z-score),[7],-0.088
same,glycan array binding signal (z-score),[8],-0.189
same,glycan array binding signal (z-score),[9],-1.19
same,glycan array binding signal (z-score),[10],-0.225
same,glycan array binding signal (z-score),[11],-9.02
same,glycan array binding signal (z-score),[12],-0.242
same,glycan array binding signal (z-score),[13],-0.205
same,glycan array binding signal (z-score),[14],-0.244
same,glycan array binding signal (z-score),[15],0.313
same,glycan array binding signal (z-score),[16],-0.186
same,glycan array binding signal (z-score),[17],-0.227
same,glycan array binding signal (z-score),[18],-0.265
same,glycan array binding signal (z-score),[19],-0.203
same,glycan array binding signal (z-score),[20],-0.174
same,glycan array binding signal (z-score),[21],-0.13
same,glycan array binding signal (z-score),[22],-0.048
same,glycan array binding signal (z-score),[23],-0.24
same,glycan array binding signal (z-score),[24],-0.243
same,glycan array binding signal (z-score),[25],-0.166
same,glycan array binding signal (z-score),[26],0.337
same,glycan array binding signal (z-score),[27],-0.863
same,glycan array binding signal (z-score),[28],-0.123
same,glycan array binding signal (z-score),[29],-0.235
same,glycan array binding signal (z-score),[30],-0.089
same,glycan array binding signal (z-score),[31],-0.276
same,glycan array binding signal (z-score),Neu5Ac(a2-3)GalNAc,-0.201
same,glycan array binding signal (z-score),[32],-0.219
same,glycan array binding signal (z-score),[33],-0.224
same,glycan array binding signal (z-score),[34],-0.143
same,glycan array binding signal (z-score),[35],0.2
same,glycan array binding signal (z-score),[36],-0.276
same,glycan array binding signal (z-score),Neu5Ac(a2-6)Gal,-0.236
same,glycan array binding signal (z-score),[37],-0.269
same,glycan array binding signal (z-score),Neu5Ac(a2-6)Gal(b1-4)Glc,-0.118
same,glycan array binding signal (z-score),[38],-0.213
same,glycan array binding signal (z-score),[39],-0.191
same,glycan array binding signal (z-score),[40],-0.254

# From the supplement of paper PMC8728848
